Assay results as given in PubChem BioAssay AID504466 (National Center for Advancing Translational Sciences (NCATS), 2011).
The whole screen tested about 330,000 compounds, of which about 4,200 (1.3%) were called active. Inconclusive results, whose numbers are uncertain, are shown with a selection of clear calls. Calls follow the shape of the dose curve; as a rule, active = well fitted activation curve with a large enough effect; inconclusive = small, poorly fitted or top-dose-only effect; inactive = no such curve, though single readings can be large or run the other way. A potency beside an inconclusive call is a rough fit, not a confirmed value.

Test: qHTS screen for small molecules that induce genotoxicity in human embryonic kidney (HEK293T) cells expressing luciferase-tagged ELG1; also: nearly all actives have a fitted effect of over 60% in size; as to activity change, positive = activation: % of control where 0% means no effect
Settings: HEK293T ELG1-luciferase reporter, luminescence, 16 h; series mostly up to 46 µM; activity change, positive = activation: at the top concentration
How it was run: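 HEK293T cells expressing luciferase-tagged ELG1 were treated with compound or DMSO for 16 hr at 37°C. Luciferase activity was then read after 30 min with ONE-Glo at room temperature; rising signal flags genetic stress.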
Potency is read from the fitted curve at half-maximal effect; tags tell the direction and shape of the fitted curve.

| SMILES | Potency | activity change, positive = activation |
| --- | --- | --- |
| CCc1nnc2n1N=C(c1ccc(OC)cc1)CS2 | inconclusive: 29.1 µM [activator, single point] |  |
| CN(C(=O)CSc1cc(Cl)ccc1Cl)C1CCS(=O)(=O)C1 (centres undefined) |  | inactive: -0.0949% |
| O=C(O)c1ccc(N/N=C/c2ccc(-c3cc(Cl)ccc3Cl)o2)cc1 | inconclusive: 1.46 µM [activator, full curve] |  |
| O=C(NC1CCCC1)c1cc2c(ccc3ccccc32)o1 | active: 4.61 µM |  |
| CCOc1ccc(Oc2nc(N(CC)CC)nc(N3CCOCC3)n2)nn1 | inconclusive: 18.3 µM [activator, single point] |  |
| O=C(O)c1ccc(-n2cccc2/C=N\NC(=O)c2cc3cc(Br)ccc3o2)cc1 |  | inactive: -1.91% |
| COc1ccc(NC(=O)c2ccco2)c([N+](=O)[O-])c1 | inconclusive: 9.2 µM [activator, partial curve] |  |
| C/C(=N\Nc1nncc2ccccc12)c1cccc(OC(F)F)c1 | active: 2.91 µM |  |
| CCOC(=O)c1ccc(NC(=O)C2C3CCCCC32)cc1 (centres undefined) |  | inactive: 22.8% |
| CCOC(=O)CC(NC(=O)c1cc2cccc(OC)c2oc1=O)c1ccc(OC)cc1 (centres undefined) | inconclusive: 23.1 µM [activator, partial curve, poor fit] |  |
| CSc1ccccc1C(=O)NC1CCSc2ccccc21 (centres undefined) |  | inactive: 1.16% |
| COc1cc(C=O)ccc1OCCCOc1ccccc1[N+](=O)[O-] | inconclusive: 29.1 µM [activator, partial curve, poor fit] |  |
| O=C(CSc1nnc(NC(=O)c2ccc(F)cc2)s1)NC1CCCC1 | inconclusive: 14.6 µM [activator, partial curve, poor fit] |  |
| Cc1ccc(C)c(NC(=O)CN2C(=O)CC(C)S(=O)(=O)c3ccccc32)c1 (centres undefined) |  | inactive: 2.65% |
| CCOC(=O)/C(C#N)=C\c1ccc(N2CCN(C/C=C/c3ccccc3)CC2)cc1 | inconclusive: 32.6 µM [activator, partial curve, poor fit] |  |
| O=C1c2ccccc2S(=O)(=O)N1CC1CC(c2ccccc2)=NO1 (centres undefined) | active: 4.11 µM |  |
| COc1ccc(/C=C\c2nc(=O)c3ccccc3o2)cc1 | inconclusive: 4.61 µM [activator, full curve] |  |
| CCCCn1c(N)c(N(CC(C)C)C(=O)CSCc2ccc(Cl)c(Cl)c2)c(=O)[nH]c1=O |  | inactive: 0.886% |
| COC(=O)c1sccc1NC(=O)/C=C/c1c(Cl)cccc1Cl | inconclusive: 6.31 µM [activator, partial curve, poor fit] |  |
| Fc1ccc(/C=N/Nc2ccccn2)cc1 | inconclusive: 20.6 µM [activator, partial curve, poor fit] |  |

| SMILES | Potency | activity change, positive = activation |
| --- | --- | --- |
| CC(Oc1ccccc1)c1nnc(SCC(=O)NC2CC2)n1C (centres undefined) |  | inactive: 13.1% |
| Cc1cccc(NC(=O)CCNC(=O)c2ccc(Br)cc2)c1 | inconclusive: 16.4 µM [activator, partial curve, poor fit] |  |
| COc1ccc(NC(=O)c2ccc(C)cc2)cc1 | active: 2.06 µM |  |
| O=C(CSc1ccccc1[N+](=O)[O-])NC1CCS(=O)(=O)C1 (centres undefined) |  | inactive: 0.237% |
| Cc1ccc(C)c(-n2sc3ccc(F)cc3c2=O)c1 |  | inactive: -6.17% |
| Cc1cc(/C=C2\SC(=O)N(C)C2=O)c(C)n1-c1ccc(O)cc1 | active: 0.651 µM |  |
| COc1cc2oc(-c3ccc(O)cc3)cc(=O)c2c(O)c1OC | inconclusive: 20.6 µM [activator, single point] |  |
| CC(C)CCn1cnc2c(oc3nc4c(cc32)CCCC4)c1=O | inconclusive: 0.82 µM [activator, partial curve] |  |
| O=C(N/N=C/c1ccc([N+](=O)[O-])o1)c1cc(-c2cccc(Br)c2)nc2ccccc12 |  | inactive: -3.27% |
| O=C(NC1CCOC1)c1cc(COc2cccc(C(F)(F)F)c2)on1 (centres undefined) | inconclusive: 18.3 µM [activator, partial curve, poor fit] |  |
| Cc1noc(NS(=O)(=O)c2ccc(NC(=O)NC(C)(C(F)(F)F)C(F)(F)F)cc2)c1C |  | inactive: -3.16% |
| O=C(Cc1ccccc1)Nc1ccc(NC(=O)c2cccc(Cl)c2)cc1 | inconclusive: 18.4 µM [activator, partial curve] |  |
| CS(=O)(=O)c1ccccc1-c1csc(N2CCC(C(N)=O)CC2)n1 | inconclusive: 9.2 µM [activator, partial curve] |  |
| CCC(C)c1ccc(NC(=O)Nc2cccnc2)cc1 (centres undefined) | inconclusive: 16.4 µM [activator, partial curve] |  |
| CC(C)C(=O)C1=Cc2cccc([N+](=O)[O-])c2OC1N1CCOCC1 (centres undefined) |  | inactive: -1.3% |
| Cc1cccc(-c2c3c(=O)n(C)c(=O)n(C)c3cn2C(C)C)c1 |  | inactive: 0.656% |
| CCc1ccc(NC(=O)c2cc(C)no2)cc1 | inconclusive: 20.6 µM [activator, single point] |  |
| O=C(Nc1ccc(N2CCOCC2)c(Cl)c1)c1ccco1 | active: 2.59 µM |  |
| COc1cccc(OC)c1-c1nn2c(-c3ccco3)nnc2s1 | inconclusive: 13 µM [activator, partial curve] |  |
